Measured values: the supplement of paper PMC10723795
Counter-ions that a name gives are not always drawn. Some of the results follow.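 The calls were made as follows: active = more than 2 SD below the DMSO mean: under 0.85 at 10 µM or 0.885 at 1 µM; inactive = the rest.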 Most values come without repeats; read them as rough. Where a SMILES comes first, the peptide text is derived from it. [ ]: non-standard residue; d: D form. Dip = N[C@H](C(=O)O)C(c1ccccc1)c1ccccc1

System: RPE1
Assay: nucleolar normality score relative to DMSO (fraction of DMSO control); RPE1 is a non-cancer human cell line; higher = more normal nucleoli (less nucleolar stress)
Details: 24 h
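Also: fixed cells immunolabelled for nucleolin and UBF, 40 image fields per well in 384-well plates, per-cell score = nucleolin nucleolar/nucleoplasm intensity ratio divided by the matching UBF ratio.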

Cn1cc(-c2ccc3c(c2)CCN3C(=O)Cc2cccc(C(F)(F)F)c2)c2c(N)ncnc21
nucleolar normality score (1 µM): inactive: 1.01 | nucleolar normality score (10 µM): inactive: 1.04

Oc1cccc(-c2nc(N3CCOCC3)c3oc4ncccc4c3n2)c1
nucleolar normality score (1 µM): inactive: 0.971 | nucleolar normality score (10 µM): inactive: 1.03

C=CS(=O)(=O)NC1CCN(C(=O)CNc2cc(I)c(Cl)cc2OC)CC1 [K-Ras(G12C) inhibitor 9]
nucleolar normality score (1 µM): inactive: 1.02 | nucleolar normality score (10 µM): inactive: 1.02

CCN(CC)CCCCNc1ncc2cc(-c3cc(OC)cc(OC)c3)c(NC(=O)NC(C)(C)C)nc2n1
nucleolar normality score (1 µM): inactive: 1.07 | nucleolar normality score (10 µM): inactive: 1.15

NCCCC[C@H](NC(=O)[C@@H](NC(=O)[C@H](Cc1c[nH]c2ccccc12)NC(=O)[C@H](CCCCN)NC(=O)[C@H](CCCCN)NC(=O)[C@H](Cc1c[nH]c2ccccc12)NC(=O)[C@H](Cc1c[nH]c2ccccc12)NC(=O)[C@H](CCCCN)NC(=O)[C@@H](N)CCCCN)C(c1ccccc1)c1ccccc1)C(N)=O (H-KKWWKKW[Dip]K-NH2)
nucleolar normality score (1 µM): inactive: 0.995 | nucleolar normality score (10 µM): inactive: 1.09

CCS(=O)(=O)c1cccc(-c2cc(C(=O)NC3CCN(C)CC3)c(C)c3[nH]c4ncc(C)cc4c23)c1
nucleolar normality score (1 µM): inactive: 0.987 | nucleolar normality score (10 µM): inactive: 0.912

O=C(/C=C/c1ccc(O)c(O)c1)O[C@H](Cc1ccc(O)c(O)c1)C(=O)O [Rosmarinic acid]
nucleolar normality score (1 µM): inactive: 0.984 | nucleolar normality score (10 µM): inactive: 0.979

NC(=O)C1CCCc2c1[nH]c1ccc(Cl)cc21 (centres undefined) [Selisistat (EX 527)]
nucleolar normality score (1 µM): inactive: 1.04 | nucleolar normality score (10 µM): inactive: 1.08

COc1ccc(-c2cc(=O)c3c(O)c(OC)c(O)cc3o2)cc1OC [Eupatilin]
nucleolar normality score (1 µM): inactive: 0.992 | nucleolar normality score (10 µM): active: 0.825

C[C@]12CC[C@@H]3c4ccc(O)cc4C[C@@H](CCCCCCCCC[S+]([O-])CCCC(F)(F)C(F)(F)F)[C@H]3[C@@H]1CC[C@@H]2O (some centres undefined) [Fulvestrant]
nucleolar normality score (1 µM): inactive: 0.975 | nucleolar normality score (10 µM): inactive: 0.982

Clc1ccc(C2(c3ccc(-c4cn[nH]c4)cc3)CCNCC2)cc1
nucleolar normality score (1 µM): inactive: 1.02 | nucleolar normality score (10 µM): inactive: 1.03

NC1(Cc2ccc(Cl)cc2)CCN(c2ncnc3[nH]ccc23)CC1
nucleolar normality score (1 µM): inactive: 1.05 | nucleolar normality score (10 µM): inactive: 0.875

Cc1cc(C(C)Nc2ccccc2)c2nc(N3CCOCC3)cc(=O)n2c1 (centres undefined)
nucleolar normality score (1 µM): inactive: 0.975 | nucleolar normality score (10 µM): active: 0.774

Cc1cc(Nc2cc(N3CCN(C)CC3)nc(Sc3ccc(NC(=O)C4CC4)cc3)n2)n[nH]1 [Tozasertib (VX-680, MK-0457)]
nucleolar normality score (1 µM): inactive: 0.917 | nucleolar normality score (10 µM): inactive: 0.95

Clc1ccc2nsnc2c1NC1=NCCN1 [Tizanidine]
nucleolar normality score (1 µM): inactive: 1.03 | nucleolar normality score (10 µM): inactive: 1.06

Nc1nc(OCc2cc(Br)cs2)c2[nH]cnc2n1 [Lomeguatrib]
nucleolar normality score (1 µM): inactive: 1.04 | nucleolar normality score (10 µM): inactive: 1.06

CC(C)c1c2cc(-c3ccnc(NC4CCC(NC5CCOCC5)CC4)n3)ccc2nn1C (centres undefined)
nucleolar normality score (1 µM): active: 0.189 | nucleolar normality score (10 µM): active: 0.143

N#Cc1ccc2ncnc(NCCc3ccccc3)c2c1 [Senexin A]
nucleolar normality score (1 µM): inactive: 0.992 | nucleolar normality score (10 µM): inactive: 0.987

O=[N+]([O-])c1ccc(Nc2nc(N3CCOCC3)nc(N3CCOCC3)n2)cc1
nucleolar normality score (1 µM): inactive: 1.07 | nucleolar normality score (10 µM): inactive: 1.08

Cc1ccc(S(=O)(=O)Nc2nc3ccccc3nc2Nc2ccc3nsnc3c2)cc1 [XL147 analogue]
nucleolar normality score (1 µM): inactive: 0.982 | nucleolar normality score (10 µM): inactive: 1.02

CCOC(=O)C1=C(N)Oc2ccc(Br)cc2C1C(C#N)C(=O)OCC (centres undefined)
nucleolar normality score (1 µM): inactive: 1.01 | nucleolar normality score (10 µM): inactive: 1.01

Cc1c(-c2ccc(O)cc2)n(Cc2ccc(OCCN3CCCCCC3)cc2)c2ccc(O)cc12 [Bazedoxifene Acetate]
nucleolar normality score (1 µM): inactive: 1.09 | nucleolar normality score (10 µM): inactive: 1.11

O=C1C(Cl)=C(N2CCOCC2)C(=O)N1c1ccc(Cl)c(Cl)c1
nucleolar normality score (1 µM): inactive: 1.08 | nucleolar normality score (10 µM): inactive: 1.09

Cc1ccc(-c2cc(C(F)(F)F)nn2-c2ccc(S(N)(=O)=O)cc2)cc1 [Celecoxib]
nucleolar normality score (1 µM): inactive: 1.07 | nucleolar normality score (10 µM): inactive: 1.05

CCn1c(N)c(C(=O)NC)c(=O)c2ccc(C#CC(C)(O)COC)nc21 (centres undefined)
nucleolar normality score (1 µM): inactive: 1.08 | nucleolar normality score (10 µM): inactive: 0.879

CCOC(=O)C1=C(C)NC(=S)NC1c1cccc(O)c1 (centres undefined) [Monastrol]
nucleolar normality score (1 µM): inactive: 0.999 | nucleolar normality score (10 µM): inactive: 1.05

Cc1cc(O)c(-c2ccc(C(C)CN)cc2)c2c1[nH]c(=O)c1sccc12 (centres undefined) [OTS514 hydrochloride]
nucleolar normality score (1 µM): active: 0.23 | nucleolar normality score (10 µM): active: 0.199

COc1ccc2c(c1)[C@]1(C[C@H]1c1ccc3c(/C=C/c4ccc(CN5C[C@@H](C)O[C@@H](C)C5)cc4)n[nH]c3c1)C(=O)N2
nucleolar normality score (1 µM): inactive: 0.927 | nucleolar normality score (10 µM): inactive: 0.924

OCCn1cc(-c2ccc3c(c2)CC/C3=N\O)c(-c2ccncc2)n1
nucleolar normality score (1 µM): inactive: 1.04 | nucleolar normality score (10 µM): inactive: 1.04

Nc1nc2c(cnn2CCc2ccccc2)c2nc(-c3ccco3)nn12
nucleolar normality score (1 µM): inactive: 0.986 | nucleolar normality score (10 µM): inactive: 0.972

COc1cc2nccc(Oc3ccc(NC(=O)c4cn(C(C)C)c(=O)n(-c5ccc(F)cc5)c4=O)cc3F)c2cc1OC
nucleolar normality score (1 µM): inactive: 0.942 | nucleolar normality score (10 µM): inactive: 1.04

CNC(=O)c1c(F)cccc1Nc1nc(Nc2cc3c(cc2OC)CCN3C(=O)CN(C)C)nc2[nH]ccc12
nucleolar normality score (1 µM): inactive: 1.01 | nucleolar normality score (10 µM): inactive: 0.885

NC[C@H]1O[C@H](O[C@H]2[C@H](O)[C@@H](O[C@H]3O[C@H](CO)[C@@H](O)[C@H](N)[C@H]3O)[C@H](N)C[C@@H]2N)[C@H](N)C[C@@H]1O [Tobramycin sulfate]
nucleolar normality score (1 µM): inactive: 1.05 | nucleolar normality score (10 µM): active: 0.514

O=C(/C=C/c1cccc(S(=O)(=O)Nc2ccccc2)c1)NO [Belinostat (PXD101)]
nucleolar normality score (1 µM): inactive: 0.984 | nucleolar normality score (10 µM): inactive: 1.06

CC(C)(C)c1cc(NC(=O)Nc2ccc(-c3cn4c(n3)sc3cc(OCCN5CCOCC5)ccc34)cc2)no1 [Quizartinib (AC220)]
nucleolar normality score (1 µM): inactive: 1.01 | nucleolar normality score (10 µM): inactive: 1.02

O=c1c(O)c(-c2ccc(O)cc2)oc2cc(O)cc(O)c12 [Kaempferol]
nucleolar normality score (1 µM): inactive: 0.993 | nucleolar normality score (10 µM): inactive: 0.864

NC[C@@](O)(c1ccc(Cl)cc1)c1ccc(-c2cn[nH]c2)cc1
nucleolar normality score (1 µM): inactive: 0.969 | nucleolar normality score (10 µM): inactive: 0.891
